The values that follow come from PubChem BioAssay AID1745853 (National Center for Advancing Translational Sciences (NCATS), 2022).

The list shows a part of the results. The main result of the screen is listed elsewhere. These columns were measured beside it and carry no call.

Holding throughout (experiment): Primary Screen for Target Class Profiling of Small Molecule Inhibitors of Methyltransferases
For test [1], the target named is Glycine N-methyltransferase (Homo sapiens) (UniProt Q14749). The conditions noted are these: purified enzyme, MTase-Glo SAH luminescence; measured here: GNMT inhibition; at 40 µM; stronger effect = lower value. In short, it runs like this:
(§1)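 Each enzyme was reacted with SAM and its substrate, with compounds tested once at 40 uM; SAH formed was read by MTase-Glo luminescence.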

The target of test [2] is Guanidinoacetate N-methyltransferase (Homo sapiens) (UniProt Q14353). The note with it: purified enzyme, MTase-Glo SAH luminescence; measured here: GAMT inhibition; at 40 µM; stronger effect = lower value. In short, it runs like this:
as §1

Test [3] has as its target Histamine N-methyltransferase (Homo sapiens) (UniProt P50135). The note with it: purified enzyme, MTase-Glo SAH luminescence; measured here: HNMT inhibition; at 40 µM; stronger effect = lower value. The essentials: as §1
For test [4], the target named is Nicotinamide N-methyltransferase (Homo sapiens) (UniProt P40261). The note with it: purified enzyme, MTase-Glo SAH luminescence; measured here: NNMT inhibition; at 40 µM; stronger effect = lower value. In short, it runs like this:
as §1

Test [5] concerns the target Phenylethanolamine N-methyltransferase (Homo sapiens) (UniProt P11086). The conditions noted are these: purified enzyme, MTase-Glo SAH luminescence; measured here: PNMT inhibition; at 40 µM; stronger effect = lower value. The essentials:
as §1
On the % scale 0 is the no-effect control and ±100 the full control effect.

As to `CCc1cccc(C)c1NS(=O)(=O)c1ccc2c(c1)n(C)c(=O)n2C`, the activity change, negative = inhibition in test [1] is 8.26%; in test [2], 0%; in test [3] it was 6.01%; in test [4] it was -10.2%; in test [5] it was 1.61%.
As for `CC(=O)Oc1cc2c(s1)CCN(C(C(=O)C1CC1)c1ccccc1F)C2` (configuration not stated), the values for the activity change, negative = inhibition in test [2], in test [4] and in test [5] were 2.8%, -13.5% and -2.32%, respectively.
For the molecule `CS(=O)(=O)N(Cc1ccco1)CC(O)Cn1c2ccccc2c2ccccc21` (configuration not stated), the activity change, negative = inhibition is 2.24% in test [1]; 7.18% in test [2]; 10.6% in test [3]; -9.53% in test [4]; 3.97% in test [5].
On the same counts, the results for `CC(C)C1NC(=O)C(CC2(O)c3ccccc3N3C(=O)C(Cc4ccccc4)NC32)NC1=O` (configuration not stated) are 4.42%, 7.14%, 11.2%, -6.86% and 4.36%.
In the case of `CC(C)NC(=O)c1ccc(C#Cc2ccncc2)cn1`, the activity change, negative = inhibition in test [1] was -7.44%; in test [2] it was 0.251%; in test [3] it was 7.03%; in test [4] it was -14.7%; in test [5], 0.84%.
On the same counts, the results for `O=C(CN1CC2CC(C1)[C@H]1CCCC(=O)N1C2)N1CCSCC1` (some centres not stated) are -3.05%, -5.74%, -0.784%, -6.8% and -3.98%.
For `CC(C(=O)N1CCN(c2ccccc2)CC1)n1ccc2cc(S(=O)(=O)N3CCCC3)ccc21` (configuration not stated), the activity change, negative = inhibition in test [1] turned out to be 7.31%; in test [2], 0.541%; in test [3], 4.02%; in test [4], 7.36%; in test [5] it was 2.87%.
Take `O=C1Nc2ccccc2/C1=C/c1cc(O)ccc1O`: the activity change, negative = inhibition in test [2] was -14.1%; in test [4] it was -35%; in test [5], -5.9%.
For the molecule `CCCC(=O)N(c1ccc(OC)cc1)S(=O)(=O)c1ccc2c(c1)n(C)c(=O)n2C`, the activity change, negative = inhibition is -3.72% in test [1]; 3.4% in test [2]; -0.711% in test [3]; -0.387% in test [4]; -0.142% in test [5].
For the molecule `CC(C)CCn1c(=O)c2ccc(C(=O)NC(C)C)cc2n2c(=O)n(CC(=O)c3ccc(Cl)cc3)nc12`, the activity change, negative = inhibition in test [1] was 3.74%; in test [2], 10.7%; in test [3], 3.47%; in test [4] it was -5.79%; in test [5], 3.15%.
On the same counts, the results for `COc1cc(OC)c(NC(=O)Cn2c(=O)oc3cc(S(=O)(=O)N4CCCC4)ccc32)cc1Cl` are 15.9%, 2.02%, 13.9%, 9.05% and 7.83%.
`CC(=O)N1CCC(N2CCOC[C@H]2c2ncc(-c3ccncc3)[nH]2)CC1`: the activity change, negative = inhibition in test [1] was -5.8%; in test [2], -8.55%; in test [3], -2.41%; in test [4], -5.48%; in test [5], -9.1%.
The matching figures for `CC(C)C(=O)Nc1ccc([N+](=O)[O-])c(C(F)(F)F)c1`: -9.02%, 4.59%, -0.294%, -8.19% and -8.9%.
`CC1CC(=O)[C@]2(O)C(C(=O)OCCc3ccc(O)c(O)c3)=CO[C@@H](O[C@@H]3O[C@H](CO)[C@@H](O)[C@H](O)[C@H]3O)[C@H]12` (some centres not stated): the activity change, negative = inhibition was 0% in test [1]; -0.794% in test [2]; 5.28% in test [3]; -12.8% in test [4]; 4.68% in test [5].
For `CCc1cc2c(cc3n2CC(C)(C(=O)NC2CCCCCC2)N(CCCc2ccccc2)C3=O)s1` (configuration not stated), the activity change, negative = inhibition in test [1] was 4.89%; in test [2], 6.98%; in test [3], 8.71%; in test [4], 7.33%; in test [5], -0.161%.
On the same counts, the results for `Cc1cc(C[C@@H]2COC[C@@H]2NC(=O)C2CCN(C(=O)C3CC3)CC2)on1` are -6.92%, -8.55%, -3.05%, -11.8% and 4.08%.
Turning to `C=CC(C)(C)C12CC3C(=O)N4C(CC5(C(C)(C)C=C)c6ccccc6NC45)C(=O)N3C1Nc1ccccc12` (configuration not stated), the activity change, negative = inhibition in test [1] is 5.09%; in test [2], -13.5%; in test [3], 7.01%; in test [4], -31.6%; in test [5], -5.63%.
On the same counts, the results for `C=C[C@H]1[C@H](O[C@@H]2O[C@H](CO[C@@H]3OC[C@](O)(CO)[C@H]3O)[C@@H](O)[C@H](O)[C@H]2O)OC=C2C(=O)OCC[C@H]21` are 3.93%, -2%, 6.07%, -15.2% and 6.36%.
In the case of `CCOc1cc2c(cn1)NCCN(Cc1ccncc1Cl)C2`, the activity change, negative = inhibition in test [1] was -7.88%; in test [2], 4.74%; in test [3], -9.34%; in test [4], -3.78%; in test [5], -9.66%.
The matching figures for `CC1(C(=O)NCc2ccc(Cl)cc2)Cn2c(ccc2-c2ccco2)C(=O)N1Cc1ccc2c(c1)OCO2` (configuration not stated): -2.65%, 0%, 1.17%, -4.27% and -2.98%.
The matching figures for `CCOc1ccc(CCN2C(=O)c3cc4ccccc4n3CC2(C)C(=O)NCCCOC(C)C)cc1` (configuration not stated): 5.29%, 2.34%, 7.51%, 2.29% and 2.94%.
The matching figures for `OC[C@@H]1CN(Cc2ccc(F)cc2)C[C@H]1c1nc(-c2ccncc2)no1`: -5.42%, -6.35%, -3.05%, -9.33% and -2.13%.
In the case of `Cc1cc(-c2ccc(/C=C3\SC(=Nc4ccc(Cl)c(C(=O)O)c4)NC3=O)o2)c([N+](=O)[O-])cc1C`, the activity change, negative = inhibition is -30.2% in test [2], -42.5% in test [4] and -38.2% in test [5].
Take `Cc1nn(CC(=O)NC2CCCCC2)c(=O)c2nc(C(C)C)sc12`: the activity change, negative = inhibition in test [1] was -5.21%; in test [2], -10.7%; in test [3], -0.673%; in test [4] it was -2.98%; in test [5] it was -2.89%.
With `CC(C)C1CCC(C(=O)N[C@H](Cc2ccccc2)C(=O)O)CC1` (some centres not stated), the activity change, negative = inhibition in test [2] was -5.73%; in test [4], -28.9%; in test [5], -1.98%.
For `COc1ccc(CCC(=O)N2CCOCCNC(=O)CC2)cc1`, the activity change, negative = inhibition was -5.11% in test [1]; -4.75% in test [2]; -0.564% in test [3]; -7.72% in test [4]; -6.27% in test [5].
On the same counts, the results for `CCCn1c(=O)c2sccc2n2c(CCC(=O)NCc3ccncc3)nnc12` are 3.15%, 0%, 10.1%, 11.4% and 3.69%.
For `CC(=O)Nc1c2n(c3ccc(F)cc13)CC(C)(C(=O)NC1CCCC1)N(CCc1ccccc1)C2=O` (configuration not stated), the activity change, negative = inhibition was 6.32% in test [1]; 0% in test [2]; 1.49% in test [3]; 7.83% in test [4]; -1.86% in test [5].
Turning to `CC(C)=CC/C=C(/C)[C@H]1CC[C@]2(C)[C@@H]1[C@H](O)CC1[C@@]3(C)CC[C@H](O)C(C)(C)[C@@H]3[C@@H](O[C@@H]3O[C@H](CO)[C@@H](O)[C@H](O)[C@H]3O[C@@H]3O[C@@H](C)[C@H](O)[C@@H](O)[C@H]3O)C[C@]12C` (some centres not stated), the activity change, negative = inhibition in test [1] amounted to 0%; in test [2], 19.8%; in test [3], 10.2%; in test [4], 5.6%; in test [5], 9.7%.
Regarding `O=C(c1cc(-n2cccn2)ccc1Cl)N1CCn2nc(CO)cc2C1`, the activity change, negative = inhibition was -3.94% in test [1]; -3.54% in test [2]; 0.899% in test [3]; -7.13% in test [4]; -16.5% in test [5].
The matching figures for `CCN(CC)CCCN1C(=O)c2ccc(-c3ccco3)n2CC1(C)C(=O)NC1CCCCCCC1` (configuration not stated): -10.2%, -1.06%, -5.7%, -14% and -2.23%.
In the case of `CC(=O)NC1CC2(CCN(C(=O)CCCNC(=O)OC(C)(C)C)CC2)Oc2ccccc21` (configuration not stated), the activity change, negative = inhibition is -6.67% in test [1]; -10.4% in test [2]; -5.07% in test [3]; -11.6% in test [4]; -13.2% in test [5].
On the same counts, the results for `Cc1nn2c(c1-c1ccccc1[S+](C)(=O)[O-])N(CCCc1ccccc1)CCC2` are -11.2%, -7.45%, -20.8%, -17% and -6.46%.
The matching figures for `COc1ccc(OC)c(NC(=O)CN(C)S(=O)(=O)c2ccc3[nH]c4c(c3c2)CCCC4)c1`: -7.25%, 1.89%, -3.97%, -1.97% and 0.047%.
On the same counts, the results for `O=C(NCC1CCN(Cc2cccc(Cl)c2)CC1)[C@@H]1CCCN(c2ncnc3c2nc2n3CCCC2)C1` are -5.55%, -2.19%, -12.1%, -29.9% and -0.231%.
Regarding `CCOC(=O)c1cc2n(n1)CC(C)(C(=O)NCc1ccc(C)cc1)N(c1ccc(CC)cc1)C2=O` (configuration not stated), the activity change, negative = inhibition in test [1] stood at 2.27%; in test [2], 0%; in test [3], 5.63%; in test [4] it was 6.11%; in test [5], 1.23%.
For the molecule `CCC(C)NC(=O)c1ccc2c(=O)n(CC(C)C)c3nn(CC(=O)c4ccccc4)c(=O)n3c2c1` (configuration not stated), the activity change, negative = inhibition in test [1] was 0.509%; in test [2], -1.6%; in test [3] it was 5.3%; in test [4], -6.35%; in test [5], -1.64%.
